Measurements from PMC4336329 (PLoS ONE, 2015).
Among all 310,000 compounds or so, about 14,000 (4.5%) showed an effect of 50% or more. Effects have a minus sign here. This is one part of the list.
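Note: peak tail current of the secondary pulse compared with the same well before compound.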

What follows are compounds tested against human ether-à-go-go-related gene (hERG) potassium channel (human, UniProt Q12809) (assay: primary screen, population patch clamp on CHO cells stably expressing hERG).
Chain of human ether-à-go-go-related gene (hERG) potassium channel (Q12809 whole entry, looked up): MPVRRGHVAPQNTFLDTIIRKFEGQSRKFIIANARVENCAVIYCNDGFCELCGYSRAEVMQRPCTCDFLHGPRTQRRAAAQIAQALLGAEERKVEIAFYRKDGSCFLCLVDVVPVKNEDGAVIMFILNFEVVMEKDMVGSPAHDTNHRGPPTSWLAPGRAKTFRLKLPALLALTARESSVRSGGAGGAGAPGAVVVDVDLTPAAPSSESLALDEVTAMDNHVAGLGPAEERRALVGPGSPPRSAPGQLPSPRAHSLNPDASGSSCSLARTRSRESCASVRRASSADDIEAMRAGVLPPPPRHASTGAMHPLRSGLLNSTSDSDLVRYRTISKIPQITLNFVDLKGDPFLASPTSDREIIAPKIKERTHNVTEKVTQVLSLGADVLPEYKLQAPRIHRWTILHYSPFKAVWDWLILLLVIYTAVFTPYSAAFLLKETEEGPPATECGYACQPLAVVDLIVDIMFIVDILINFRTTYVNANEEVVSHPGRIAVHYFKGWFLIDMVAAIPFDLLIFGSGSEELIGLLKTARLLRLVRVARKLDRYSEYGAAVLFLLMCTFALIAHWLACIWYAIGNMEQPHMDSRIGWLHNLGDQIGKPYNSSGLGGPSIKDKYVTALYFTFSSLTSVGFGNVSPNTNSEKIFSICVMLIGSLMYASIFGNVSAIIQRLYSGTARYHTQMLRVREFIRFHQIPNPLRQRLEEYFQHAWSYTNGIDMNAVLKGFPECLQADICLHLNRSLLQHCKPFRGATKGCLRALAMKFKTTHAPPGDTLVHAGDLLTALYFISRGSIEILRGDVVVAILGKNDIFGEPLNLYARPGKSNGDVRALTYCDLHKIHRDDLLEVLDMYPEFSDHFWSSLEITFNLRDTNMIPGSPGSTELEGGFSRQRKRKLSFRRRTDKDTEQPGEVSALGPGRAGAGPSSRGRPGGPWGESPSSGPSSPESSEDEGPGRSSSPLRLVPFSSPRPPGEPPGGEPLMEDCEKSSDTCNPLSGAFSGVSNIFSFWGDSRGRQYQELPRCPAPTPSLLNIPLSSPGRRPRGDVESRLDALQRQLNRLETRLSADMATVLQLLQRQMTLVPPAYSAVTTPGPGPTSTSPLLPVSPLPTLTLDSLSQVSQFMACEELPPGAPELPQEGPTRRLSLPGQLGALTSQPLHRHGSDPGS
With `CCOC(=O)Cn1c(=O)n(Cc2ccc(OC)cc2)c(=O)c2cccnc21` the “hERG current change (%, negative = inhibition) at 10uM” value was -6.8%. For `CC1CC1C(=O)N(C)CC(=O)Nc1cccc(F)c1` (stereo not shown), the “hERG current change (%, negative = inhibition) at 10uM” value was 17.2%. For `COc1ccc(CN(C(=O)c2oc3cc(C)ccc3c2C)C2CCS(=O)(=O)C2)cc1OC` (stereo not shown), the “hERG current change (%, negative = inhibition) at 10uM” value was -23.4%. With `Cc1ccc(C2/C(=C(\O)c3ccc4c(c3)OCCO4)C(=O)C(=O)N2CC2CCCO2)cc1` (stereo not shown) the “hERG current change (%, negative = inhibition) at 10uM” value was 9.66%. In the case of `C#CCO[C@@H]1C[C@H](n2cnc3c(=O)[nH]c(NC(=O)C(C)C)nc32)O[C@@H]1CO`, the “hERG current change (%, negative = inhibition) at 10uM” value is reported as 15.4%. `COc1cccc(/C=N/Nc2snc(SC)c2C#N)c1` was tested, and the “hERG current change (%, negative = inhibition) at 10uM” value was 7.86%. With `Cc1cccc(N2CCN(C(=O)c3cc(S(=O)(=O)N(C)C)ccc3N3CCCC3)CC2)c1C` the “hERG current change (%, negative = inhibition) at 10uM” value was -12.3%. For `CCN(CC)S(=O)(=O)c1ccc(N2CCOCC2)c(NC(=O)C2CC2)c1`, the “hERG current change (%, negative = inhibition) at 10uM” value was -12.4%. In the case of `COc1ccccc1NC(=O)c1cc2ccccc2nc1C`, the “hERG current change (%, negative = inhibition) at 10uM” value is reported as 8.42%. With `CCc1ccc(-c2nc(CSCC(=O)N3CCN(c4ncccn4)CC3)c(C)o2)cc1` the “hERG current change (%, negative = inhibition) at 10uM” value was -23.6%. For `CCOC(=O)c1c(-c2ccc(C)o2)csc1NC(=O)CN1CCCCC1.O=C(O)C(=O)O`, the “hERG current change (%, negative = inhibition) at 10uM” value was -4.68%. With `Cc1ccc(CNC(=O)c2ccc(COc3ccccc3)cc2)cc1` the “hERG current change (%, negative = inhibition) at 10uM” value was -12.7%. In the case of `O=C(OCc1ccccc1)c1cccc(-c2nnc(-c3ccccc3)o2)c1`, the “hERG current change (%, negative = inhibition) at 10uM” value is reported as -7.17%. `Nc1nc(N2CCN(Cc3ccccc3)CC2)n[nH]1` was tested, and the “hERG current change (%, negative = inhibition) at 10uM” value was 24.7%. `CC(C)Cc1ccc(/C=C/C(=O)N2CCOCC2)cc1` was tested, and the “hERG current change (%, negative = inhibition) at 10uM” value was -29%. In the case of `COc1cccc(C2CC(c3ccccc3OC)n3nc(N)nc3N2)c1` (stereo not shown), the “hERG current change (%, negative = inhibition) at 10uM” value is reported as -5.43%. In the case of `OCCNc1nc(Nc2ccccc2)nc(Nc2ccccc2)n1`, the “hERG current change (%, negative = inhibition) at 10uM” value is reported as -9.85%. In the case of `CSc1nc(Oc2ccccc2)c2sccc2n1`, the “hERG current change (%, negative = inhibition) at 10uM” value is reported as 6.63%. For `COc1ccc(CCn2c(=S)[nH]c3ccc(N4CCOCC4)cc3c2=O)cc1OC`, the “hERG current change (%, negative = inhibition) at 10uM” value was 10.2%. `CC(C)[C@H](NC(=O)c1ccc(C(C)(C)C)cc1)C(=O)Nc1nnc(C2CC2)s1` was tested, and the “hERG current change (%, negative = inhibition) at 10uM” value was -1.45%. `COc1cccc(C2=CC(c3ccc(N(C)C)cc3)n3nnnc3N2)c1` (stereo not shown) was tested, and the “hERG current change (%, negative = inhibition) at 10uM” value was 4.74%. For `Cc1cc(C)c2c(=O)c(C#N)coc2c1`, the “hERG current change (%, negative = inhibition) at 10uM” value was -0.22%. With `COc1ccc(-n2nc3c(c2NC(=O)COc2ccccc2F)CS(=O)(=O)C3)cc1` the “hERG current change (%, negative = inhibition) at 10uM” value was 2.75%. With `Cn1c(O)c(C=NCCCCCCCCCCC(=O)O)c(=O)n(C)c1=O` the “hERG current change (%, negative = inhibition) at 10uM” value was 1.01%. `COc1ccc(F)c(CN2CCCC(CO)(Cc3cccc(Cl)c3)C2)c1` (stereo not shown) was tested, and the “hERG current change (%, negative = inhibition) at 10uM” value was -30.6%. `FC(F)(F)c1cc(-c2cccs2)nc(N2CCOCC2)n1` was tested, and the “hERG current change (%, negative = inhibition) at 10uM” value was 1.94%. In the case of `CCSc1nc(O)c(C(c2cccc(OC)c2)c2c(O)nc(SCC)[nH]c2=O)c(=O)[nH]1`, the “hERG current change (%, negative = inhibition) at 10uM” value is reported as 10.7%. For `Cc1cccc(Nc2nnc(SCC3CCCCO3)s2)c1C` (stereo not shown), the “hERG current change (%, negative = inhibition) at 10uM” value was -36.5%. `COC(=O)CC1C(C(=O)OC)ON2OC(C(=O)OC)C(C(=O)OC)C12` (stereo not shown) was tested, and the “hERG current change (%, negative = inhibition) at 10uM” value was 2.95%. With `Cc1ccc(-n2nc3cc(C)c(NC(=O)c4cccnc4)cc3n2)cc1` the “hERG current change (%, negative = inhibition) at 10uM” value was 7.73%. For `COc1ccc(S(=O)(=O)N2CCOC2CNC(=O)C(=O)NCCCc2ccccc2)cc1` (stereo not shown), the “hERG current change (%, negative = inhibition) at 10uM” value was -29.6%. With `COc1ccccc1Nc1nc(N)nc(-c2cc3ccccc3o2)n1` the “hERG current change (%, negative = inhibition) at 10uM” value was 23.4%. With `Cc1cccc(NC(=O)c2ccc(S(=O)(=O)N3CCN(C)CC3)cc2)c1C` the “hERG current change (%, negative = inhibition) at 10uM” value was 15.1%. `COC(=O)C1=C(C)N(C)C(=O)/C1=C\c1ccco1` was tested, and the “hERG current change (%, negative = inhibition) at 10uM” value was -1.58%. For `CCOc1ccc2nc(NC(=O)c3cccnc3)sc2c1`, the “hERG current change (%, negative = inhibition) at 10uM” value was 14.8%. For `O=C(CCc1ccccc1)Nc1cccnc1Cl`, the “hERG current change (%, negative = inhibition) at 10uM” value was 13.4%. `CCO[C@@H]1OC(C(=O)Nc2ccccc2)=C[C@H](c2ccc(C(F)(F)F)cc2)[C@H]1CCCO` was tested, and the “hERG current change (%, negative = inhibition) at 10uM” value was -10.8%. With `Cc1cccc(OC2(c3ccccc3)OC(=O)c3ccccc32)c1C` (stereo not shown) the “hERG current change (%, negative = inhibition) at 10uM” value was 8.61%. `CCOC(=O)[C@H]1[C@H]2COc3ccccc3[C@@H]2N2C(=O)[C@@H](CO)NC(=O)[C@@]12C` was tested, and the “hERG current change (%, negative = inhibition) at 10uM” value was 12.8%. With `CCOC(=O)[C@]1(C#N)[C@@H]2C=CC(C(C)=O)=CN2[C@@H](C(N)=O)[C@@H]1c1ccsc1` the “hERG current change (%, negative = inhibition) at 10uM” value was -2.96%. In the case of `CCC(C(=O)c1ccccc1)N(C(=O)c1ccccc1Cl)N1C(=O)C2C3C=CC(C3)C2C1=O` (stereo not shown), the “hERG current change (%, negative = inhibition) at 10uM” value is reported as -7.79%. With `Cc1ccnc(NS(=O)(=O)c2ccc(NS(=O)(=O)c3cccs3)cc2)n1` the “hERG current change (%, negative = inhibition) at 10uM” value was 13.5%. For `O=[N+]([O-])c1ccc(NS(=O)(=O)c2cccc3cccnc23)cc1`, the “hERG current change (%, negative = inhibition) at 10uM” value was 7.19%. In the case of `COc1ccc(OC)c(C2=Nn3c(nnc3-c3ccco3)SC2)c1`, the “hERG current change (%, negative = inhibition) at 10uM” value is reported as -12.6%. With `CC(C)[C@H](NC(=O)c1cccc(CN(Cc2ccccc2)C(=O)/C=C/c2ccccc2)c1)C(=O)O` the “hERG current change (%, negative = inhibition) at 10uM” value was 12.7%. For `COc1ccc(CN(C)C(C)C(=O)Nc2ccc(S(=O)(=O)N3CCCCC3)cc2)cc1F` (stereo not shown), the “hERG current change (%, negative = inhibition) at 10uM” value was -19.7%. `CC(=O)Oc1ccc(Cn2cnc3cc4ccccc4cc32)cc1` was tested, and the “hERG current change (%, negative = inhibition) at 10uM” value was -5.72%. `Cl.Nc1nc(N2CCN(c3ccccn3)CC2)nc2ccccc12` was tested, and the “hERG current change (%, negative = inhibition) at 10uM” value was -68.4%. `Cc1c(NC(=O)c2ccc3c(c2)C(=O)N(CC2CCCO2)C3=O)cccc1C(=O)O` (stereo not shown) was tested, and the “hERG current change (%, negative = inhibition) at 10uM” value was 24.4%. For `CSc1sc(C(=O)O)c(C)c1C(C)=O`, the “hERG current change (%, negative = inhibition) at 10uM” value was 12.7%. With `COc1ccc(N2CCN(C(=O)Cc3csc(NC(=O)Nc4ccccc4OC)n3)CC2)cc1` the “hERG current change (%, negative = inhibition) at 10uM” value was 1.05%. For `Cc1cccc(OCCCC(=O)Nc2ccc3c(c2)OCO3)c1`, the “hERG current change (%, negative = inhibition) at 10uM” value was 0.548%. In the case of `CCCNc1ncnc2onc(C)c12`, the “hERG current change (%, negative = inhibition) at 10uM” value is reported as 19.5%. With `CC(Cl)C(=O)NN=C(c1ccccc1)c1ccccc1` (stereo not shown) the “hERG current change (%, negative = inhibition) at 10uM” value was 5.34%. `CCC(=O)NC(=Nc1nc2ccccc2s1)NC(=O)CC` was tested, and the “hERG current change (%, negative = inhibition) at 10uM” value was -0.0769%.
